Experimental data reported in article PMC12040169 (PLOS Biology, 2025).
Some of the results follow.

These molecules were tested on T1, C. trachomatis L2/434/Bu expressing GFP (CTL2-GFP). Details: total inclusion area; 28.5 h, 10 µM; inhibitor.
T1 construct: L2/434/Bu GFP intracellular growth in HeLa cells
Design: species or system HeLa; C. trachomatis total inclusion area by high-content imaging, normalised to DMSO
Method in brief: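 Following bulk GFP and resorufin fluorescence reads, infected cells were fixed, Hoechst-stained and imaged on a high-content platform. Inclusion total area and number per well served as growth proxies; nuclei counts indicated host viability. MICs were derived as for the fluorescence assay.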

Question: How did the “% of control remaining” value turn out when `COC(=O)c1ccccc1NC(=O)CNS(=O)(=O)c1ccc(C)cc1` [CBK266000] was run?
Answer: 128.538

Question: How did the “% of control remaining” value turn out when `COc1ccc(CC(=O)NC(CCSC)c2nc3ccccc3[nH]2)cc1` (stereo not shown) [CBK306050] was run?
Answer: 37.989

Question: For `O=C(O)c1nn(-c2ccccc2)c2cc([N+](=O)[O-])ccc12` [CBK006532], which “% of control remaining” value is on record?
Answer: 80.2104

Question: How did the “% of control remaining” value turn out when `COc1cc(/C=C2\SC(=S)N(CC(=O)NNC(=O)c3ccccc3O)C2=O)ccc1O` [CBK261301] was run?
Answer: 96.9725

Question: With `CN(C)CCNC(=O)c1ccc(-c2ccccc2S(=O)(=O)Nc2ccc(C(=O)O)c(O)c2)cc1` [CBK174050] as the molecule, how does the “% of control remaining” value read?
Answer: 71.9287

Question: How did the “% of control remaining” value turn out when `Cc1cc(C)n(C(C)CNC(=O)c2cc(C3CC3)on2)n1` (stereo not shown) [CBK283243] was run?
Answer: 115.444

Question: With `Cc1ccc(S(=O)(=O)NCCSCc2ccc(Cl)cc2)cc1[N+](=O)[O-]` [CBK264056] as the molecule, how does the “% of control remaining” value read?
Answer: 93.1244

Question: With `O=S(=O)(c1cccc(F)c1)N1CCC(Cc2ccccc2)CC1` [CBK044828] as the molecule, how does the “% of control remaining” value read?
Answer: 94.8203

Question: How did the “% of control remaining” value turn out when `COc1ccc(CCNCC2OCCc3cccc(OC)c32)cc1OC` (stereo not shown) [CBK024032C] was run?
Answer: 63.9243

Question: Which “% of control remaining” value does the source give for `CCOc1ccccc1CN(C)c1cc(C2CC(N)C2)nc(N)n1` (stereo not shown) [CBK307308] here?
Answer: 31.8636

Question: For `OCCN(CCO)c1cncc(-c2cccc3ccccc23)n1` [CBK065812], which “% of control remaining” value is on record?
Answer: 84.6497

Question: For `O=C(O)CCc1ccc(-c2ccc(F)cc2)n1CC1CCCO1` (stereo not shown) [CBK268988], which “% of control remaining” value is on record?
Answer: 109.034

Question: With `Cc1ccccc1NC(=O)Nc1ccc(OCc2ccccc2)cc1` [CBK262861] as the molecule, how does the “% of control remaining” value read?
Answer: 94.3948

Question: For `Cc1cc(/C=N/NC(=O)C(=O)NCc2ccccn2)c(C)n1-c1cccc(Br)c1` [CBK263815], which “% of control remaining” value is on record?
Answer: 107.562

Question: `CC(C)(C)OC(=O)NC1CCC(NCc2ccccc2Br)CC1` (stereo not shown) [CBK056684] was tested. Which “% of control remaining” value did it give?
Answer: 98.8013

Question: With `CSCC(=O)N1C[C@@H]2C[C@H](C1)c1c(-c3ccc(NC(C)=O)cc3)ccc(=O)n1C2` [CBK289200] as the molecule, how does the “% of control remaining” value read?
Answer: 106.39

Question: Which “% of control remaining” value does the source give for `Nc1cccc(-c2nc(NC(=O)c3ccncc3)cnc2-c2ccc(F)c(Cl)c2)c1` [CBK037573] here?
Answer: 76.075

Question: With `COc1cccc(-c2csc(NS(=O)(=O)c3ccc(C)c(C(=O)O)c3)n2)c1` [CBK299803] as the molecule, how does the “% of control remaining” value read?
Answer: 39.6921

Question: `CN(C)C(=O)[C@@]1(O)CCC2(c3ccc(Cl)cc3)CCCN(C)C2C1` (stereo partly shown) [CBK005234] was tested. Which “% of control remaining” value did it give?
Answer: 10.4253

Question: `CCCCSc1nnc(-c2cc3c(C(F)(F)F)nn(C)c3s2)n1C` [CBK019526] was tested. Which “% of control remaining” value did it give?
Answer: 77.2494

Question: `CC1=C[C@@H](CNS(C)(=O)=O)[C@H](C(C)C)C[C@H]1CC(=O)N1CCOCC1` [CBK289050] was tested. Which “% of control remaining” value did it give?
Answer: 108.007

Question: For `CC(C)C(=O)Nc1cc2cccnc2nc1-c1ccccc1` [CBK073647], which “% of control remaining” value is on record?
Answer: 117.257

Question: Which “% of control remaining” value does the source give for `Nc1nc(O)cc(C2CCN(CCOc3ccccc3F)C2)n1` (stereo not shown) [CBK304726] here?
Answer: 54.9541

Question: With `O=C1N=C(Nc2cccc(O)c2)S/C1=C1\C(=O)Nc2ccccc21` [CBK265549] as the molecule, how does the “% of control remaining” value read?
Answer: 89.1234

Question: `O=C(NCCCn1ccnc1)c1cc(-c2ccc(Br)cc2)nc2ccccc12` [CBK262645] was tested. Which “% of control remaining” value did it give?
Answer: 19.0204

Question: `Cc1nn(CC(=O)N2CCCC2)c(=O)c2cc3ccsc3n12` [CBK284057] was tested. Which “% of control remaining” value did it give?
Answer: 104.849

Question: For `Nc1ncc(-c2cncnc2)nc1NCC1CCOCC1` [CBK063877], which “% of control remaining” value is on record?
Answer: 134.353

Question: With `Cc1cc(CN2CCN(C(C)c3nc(C(C)(C)C)no3)CC2)no1` (stereo not shown) [CBK305641] as the molecule, how does the “% of control remaining” value read?
Answer: 113.015

Question: `CCn1c(CC2CCN(c3nc(C)cc(C)c3C#N)CC2)nn(C)c1=O` [CBK307027] was tested. Which “% of control remaining” value did it give?
Answer: 72.389

Question: Which “% of control remaining” value does the source give for `O=C(O)C[C@]1(C(=O)NC2CCCCCC2)CC(c2ccc(Cl)cc2)=NO1` [CBK286716] here?
Answer: 66.4287

Question: With `Oc1cccc(C(O)CNCc2ccc(OCc3ccc(Cl)cc3Cl)cc2)c1` (stereo not shown) [CBK267621C] as the molecule, how does the “% of control remaining” value read?
Answer: 72.1909

Question: How did the “% of control remaining” value turn out when `Nc1ccc(-c2ncccc2O)cc1` [CBK262937C] was run?
Answer: 87.4735

Question: For `CNS(=O)(=O)c1ccc(C)c(C(=O)N(C)Cc2cnn(C)c2)c1` [CBK304026], which “% of control remaining” value is on record?
Answer: 63.5229

Question: With `COc1ccc(F)cc1S(=O)(=O)N1CCCN(S(=O)(=O)c2cc(F)ccc2OC)CC1` [CBK266555] as the molecule, how does the “% of control remaining” value read?
Answer: 101.834

Question: Which “% of control remaining” value does the source give for `C[C@@H](c1ccccc1)N1C(=O)[C@@H]2CN(C(=O)COCC(=O)O)CCN2C1=O` [CBK289636] here?
Answer: 130.31

Question: With `Cc1cc(C)n(CCC(=O)N2CCC(c3ccncc3)CC2)n1` [CBK283529] as the molecule, how does the “% of control remaining” value read?
Answer: 93.173

Question: `CCc1c(C)nc2c(C(=O)N3CCCC3COC)cnn2c1C` (stereo not shown) [CBK162146] was tested. Which “% of control remaining” value did it give?
Answer: 70.0476

Question: `COc1ccc(OC(C)C(=O)O/N=C(\N)c2ccccn2)cc1` (stereo not shown) [CBK266669] was tested. Which “% of control remaining” value did it give?
Answer: 119.072

Question: With `CCN(CC)C(=O)CNS(=O)(=O)c1ccc(OC)c(OC)c1` [CBK034499] as the molecule, how does the “% of control remaining” value read?
Answer: 85.4974

Question: With `CC(C)(C)NC(=O)N/N=C/c1[nH]ncc1Br` [CBK017439] as the molecule, how does the “% of control remaining” value read?
Answer: 57.6877
